Laboratory results as given in PubChem BioAssay AID504332 (National Center for Advancing Translational Sciences (NCATS), 2011).
The whole screen tested about 350,000 compounds, of which about 31,000 (8.9%) were called active. This list was built around the results that the source calls inconclusive (neither active nor inactive); the mix of calls is not that of the screen. Calls come from the whole dose curve; as a rule, active = well fitted inhibition curve with a large enough effect; inconclusive = small, poorly fitted or top-dose-only effect; inactive = no such curve, though single readings can be large or run the other way. Potencies of inconclusive entries are doubtful fits and often do not repeat.

What follows are compounds tested against Histone-lysine N-methyltransferase EHMT2 (Homo sapiens) (UniProt Q96KQ7) (assay: qHTS Assay for Inhibitors of Histone Lysine Methyltransferase G9a). Conditions: G9a H3K9 monomethylation, AlphaScreen, 2 h; activity, negative = inhibition: at 59 µM (top of the series) unless noted.
Procedure, shortened: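 Chemiluminescent proximity detection of H3K9 monomethylation, read after 10 min bead incubation in the dark. Reaction: 20 nM G9a, 500 nM biotin-H3K9 peptide, 20 uM SAM cofactor, 2 h, room temperature, following 15 min enzyme-compound preincubation.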
% is set by controls: 0 for no effect and ±100 for the full control effect; potency is the fitted concentration of half-maximal effect; tags give direction and shape of the fitted curve.
Note: nearly all actives have a fitted effect of over 75% in size.

Chain of UniProt Q96KQ7 (Q96KQ7 whole entry, looked up): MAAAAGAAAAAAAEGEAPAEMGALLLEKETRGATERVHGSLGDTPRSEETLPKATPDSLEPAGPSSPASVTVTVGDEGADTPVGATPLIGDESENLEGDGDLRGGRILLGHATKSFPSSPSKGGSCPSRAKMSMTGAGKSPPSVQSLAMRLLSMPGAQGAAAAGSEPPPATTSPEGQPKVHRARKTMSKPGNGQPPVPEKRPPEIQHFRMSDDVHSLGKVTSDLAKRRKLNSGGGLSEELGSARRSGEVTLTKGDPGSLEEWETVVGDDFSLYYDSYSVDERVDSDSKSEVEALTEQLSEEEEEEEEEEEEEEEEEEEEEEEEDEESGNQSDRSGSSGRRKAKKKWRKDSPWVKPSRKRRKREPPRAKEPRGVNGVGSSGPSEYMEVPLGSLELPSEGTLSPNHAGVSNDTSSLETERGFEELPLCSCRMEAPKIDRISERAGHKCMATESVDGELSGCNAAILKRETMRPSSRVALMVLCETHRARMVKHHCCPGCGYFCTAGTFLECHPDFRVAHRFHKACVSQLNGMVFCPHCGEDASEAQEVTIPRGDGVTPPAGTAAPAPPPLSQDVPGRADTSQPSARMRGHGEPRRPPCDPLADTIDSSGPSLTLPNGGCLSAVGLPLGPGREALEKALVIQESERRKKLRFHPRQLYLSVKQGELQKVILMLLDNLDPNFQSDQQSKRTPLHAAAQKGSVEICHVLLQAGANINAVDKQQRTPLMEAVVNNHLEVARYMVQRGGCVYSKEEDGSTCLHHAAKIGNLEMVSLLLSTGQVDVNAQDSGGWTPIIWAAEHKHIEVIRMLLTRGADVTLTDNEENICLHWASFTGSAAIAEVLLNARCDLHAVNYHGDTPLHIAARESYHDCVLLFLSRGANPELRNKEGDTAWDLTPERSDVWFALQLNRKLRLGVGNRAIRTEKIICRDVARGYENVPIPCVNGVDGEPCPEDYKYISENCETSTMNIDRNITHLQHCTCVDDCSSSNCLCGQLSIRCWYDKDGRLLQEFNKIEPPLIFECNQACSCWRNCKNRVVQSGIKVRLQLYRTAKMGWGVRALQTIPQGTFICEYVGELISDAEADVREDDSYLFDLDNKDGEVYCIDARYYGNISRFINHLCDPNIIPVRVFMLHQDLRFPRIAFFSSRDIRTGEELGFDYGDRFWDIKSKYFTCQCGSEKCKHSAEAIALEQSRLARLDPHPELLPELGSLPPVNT

| SMILES | Potency | activity, negative = inhibition |
| --- | --- | --- |
| CN(/N=C/c1ccncc1)C1=NS(=O)(=O)c2ccccc21 | inconclusive: 70.8 µM [inhibitor, single point] | – |
| O=C(Cc1cccs1)NC(c1ccccc1)c1ccccc1 | inconclusive: 44.7 µM [inhibitor, partial curve, poor fit] | – |
| O=C(CSc1nc2c(c(=O)[nH]1)CN(Cc1ccc(F)cc1)CC2)Nc1ccccc1Cl | inconclusive: 39.8 µM [inhibitor, partial curve, poor fit] | – |
| CN1CCc2c(sc3nc(SCC(=O)N4CCOCC4)n(-c4ccc(Cl)cc4)c(=O)c23)C1 | active: 70.8 µM | – |
| CCc1ccc(C2c3[nH]c4ccccc4c3CCN2C(=O)CN2CCN(CC)CC2)cc1 (centres undefined) | inconclusive: 39.8 µM [inhibitor, partial curve] | – |
| O=C(NCC(c1cccnc1)N1CCN(c2ccccc2F)CC1)c1ccccc1 (centres undefined) | inconclusive: 89.1 µM [inhibitor, single point] | – |
| CCN1C(=O)/C(=C2/C=CC=CN2C)OC1=S | active: 44.7 µM | – |
| O=C(O)C(O)C(O)c1nc2ccccc2[nH]1 (centres undefined) | inconclusive: 44.7 µM [inhibitor, partial curve, poor fit] | – |
| N/C(=N\c1nc2ccccc2o1)NC(=O)c1ccccc1Br | inactive | – |
| COCCn1c(=O)c(C)nc2cnc(Oc3ccccc3)nc21 | – | inactive: -4.26% [at 0.501 µM] |
| O=C(CCS(=O)(=O)c1ccccc1)Nc1ccccn1 | inconclusive: 79.4 µM [inhibitor, single point] | – |
| CC(=O)N1CCC2(CC1)CN(C(=O)Nc1cccc(C#N)c1)C2 | – | inactive: 7.69% [at 12.7 µM] |
| Cc1cccc(NC(=O)CSc2n[nH]c(-c3ccncc3)n2)c1C | inconclusive: 56.2 µM [inhibitor, partial curve, poor fit] | – |
| O=C(O)/C=C/C(=O)NNC(=O)c1cc(-c2ccccc2)n[nH]1 | active: 20 µM | – |
| Cc1ccccc1N1CCN(CCCOc2ccc3c(C)cc(=O)oc3c2)CC1 | inconclusive: 14.1 µM [inhibitor, partial curve] | – |
| Cc1ccc(C(O)(c2ccccc2)c2ccccc2C(C)N(C)C)c(C)c1 (centres undefined) | inconclusive: 3.98 µM [inhibitor, full curve] | – |
| CCN(CC)c1ccc(NC(=O)CCNS(=O)(=O)c2ccc3c(c2)CCC(=O)N3)c(C)c1 | active: 39.8 µM | – |
| CCOC(=O)C1=C(CC)Nc2ccccc2N=C1NC(=O)c1ccc(S(=O)(=O)N2CCOCC2)cc1 | inactive | – |
| O=C(C1CC(=O)N(C2CCCC2)C1)N1CCN(c2cccc(C(F)(F)F)c2)CC1 (centres undefined) | inactive | – |
| CC1CCN(C(=O)COc2coc(CN3CCc4ccccc43)cc2=O)CC1 | inconclusive: 79.4 µM [inhibitor, partial curve] | – |
| COc1cc2[nH]c(=S)n(CCN3CCOCC3)c(=O)c2cc1OC | inconclusive: 35.5 µM [inhibitor, single point] | – |
| O=C(CSc1ccc2nnc(-c3ccccn3)n2n1)N1CCOCC1 | inconclusive: 89.1 µM [inhibitor, single point] | – |
| Cc1ccc(NC(=O)CNS(=O)(=O)c2cccs2)cc1F | active: 79.4 µM | – |
| COC(=O)c1ccccc1NC(=O)NCc1ccco1 | inactive | – |
| CC(CN(C)C)CN1c2ccccc2Sc2ccccc21 (centres undefined) | inconclusive: 14.1 µM [inhibitor, partial curve] | – |

| SMILES | Potency | activity, negative = inhibition |
| --- | --- | --- |
| COc1ncc2nc(-c3ccc(Cl)cc3)c(=O)n(C[C@H]3CCCO3)c2n1 | – | inactive: 1.1% [at 12.7 µM] |
| Cc1c(-c2csc(N)n2)cnn1C | inconclusive: 0.891 µM [inhibitor, full curve, poor fit] | – |
| CCCn1c(SCc2nc3ccccc3s2)n[nH]c1=O | active: 56.2 µM | – |
| O=C(Nc1nc(-c2ccccc2)cs1)c1cccc([N+](=O)[O-])c1 | active: 31.6 µM | – |
| CCc1ccccc1NC(=O)CSCc1cnn(-c2ccccc2)c1-n1cccc1 | inconclusive: 35.5 µM [inhibitor, partial curve, poor fit] | – |
| Cc1ccccc1NC(=O)CSc1[nH]c(=O)cc(C)c1C#N | active: 14.1 µM | – |
| CN(C)c1ccc(N=Nc2ccccc2C(=O)OCC(=O)N2CCCC2)cc1 | active: 25.1 µM | – |
| Cc1ccc(NC(=O)c2sc(N)nc2C)cc1 | inactive | – |
| CCN1CCN(C(=O)c2cn(CC)c3ccc(S(=O)(=O)N(C)C)cc3c2=O)CC1 | inconclusive: 39.8 µM [inhibitor, single point] | – |
| COc1cccc(OCc2cc(C(=O)NCc3ccc4c(c3)OCO4)no2)c1 | inactive | – |
| COc1cc2c(cc1OC)C(COc1ccc(F)cc1)N(C(=O)c1ccco1)CC2 (centres undefined) | – | inconclusive: -70.4% [inhibitor] |
| Cc1ccc2c(c1)c1c(c(=O)n(-c3ccccc3C)c(=O)n1CC(=O)N1CCCC1)n2C | inactive | – |
| Cc1ccccc1Nc1sc(C(=O)c2ccccc2)c(N)c1C(=O)NCc1ccc(Cl)cc1 | inconclusive: 25.1 µM [inhibitor, single point] | – |
| CC(C)CN1C(=O)C(=O)N(CC(=O)c2ccc3c(c2)CCCC3)C1=O | inconclusive: 11.2 µM [inhibitor, partial curve, poor fit] | – |
| N#Cc1ccccc1NC(=O)c1ccc2c(Cl)c3c(nc2c1)CCCC3 | inconclusive: 35.5 µM [inhibitor, partial curve, poor fit] | – |
| Nc1ccc(N2CCOCC2)c(S(=O)(=O)Nc2cc(Cl)ccc2Cl)c1 | active: 35.5 µM | – |
| COc1cc2nc(-c3ccccc3)nc(N3CCCC3)c2cc1OC | inconclusive: 39.8 µM [inhibitor, single point] | – |
| Cc1ccc(CNC(=O)c2sccc2-n2cccc2)cc1 | inconclusive: 79.4 µM [inhibitor, single point] | – |
| Cc1nc2nc[nH]n2c(=O)c1CCC(=O)Nc1ccc(F)cc1 | inactive | – |
| O=C(COC(=O)c1nc(Cl)c(Cl)c(Cl)c1Cl)NCc1ccccc1 | inconclusive: 20 µM [inhibitor, single point] | – |
| N=c1c(C(=O)NCc2ccc(F)cc2)cc2c(=O)n3ccccc3nc2n1CC1CCCO1 (centres undefined) | inconclusive: 20 µM [inhibitor, single point] | – |
| CCOc1ccc(NC(=O)Cn2c(=O)n(-c3ccccc3)c(=O)c3ccc(C(=O)NCc4ccc5c(c4)OCO5)cc32)cc1 | inactive | – |
| C/C(=N\NC(=O)Cc1ccc(Cl)cc1)c1cccc(NC(=O)c2cccnc2)c1 | inactive | – |
| O=C(NC1=NCCS1)c1cc(Cl)ccc1Cl | inconclusive: 56.2 µM [inhibitor, partial curve] | – |
| CC(C)c1nnc(NC(=O)CSc2ncn[nH]2)s1 | inconclusive: 39.8 µM [inhibitor, single point] | – |

| SMILES | Potency | activity, negative = inhibition |
| --- | --- | --- |
| CCC(C(=O)Nc1ccncc1)c1ccccc1 (centres undefined) | inconclusive: 6.31 µM [inhibitor, partial curve, poor fit] | – |
| CN(C(=O)COC(=O)c1ccc(Br)c([N+](=O)[O-])c1)c1c(N)n(Cc2ccccc2)c(=O)[nH]c1=O | – | inactive: 15.8% [at 2.33 µM] |
| COc1ccc(C(=O)CSc2nnc(CNc3ccc(F)cc3)o2)cc1 | inactive | – |
| O=C(NNC(=S)NC1CC2C=CC1C2)c1cccnc1 (centres undefined) | inactive | – |
| O=C(Nc1cccc(S(=O)(=O)N2CCCC2)c1)c1cc(-c2ccccn2)nc2ccccc12 | inconclusive: 11.2 µM [inhibitor, partial curve, poor fit] | – |
| NS(=O)(=O)c1cccc(NC(=O)CSc2nnnn2-c2ccccc2)c1 | – | inactive: 16.5% [at 12.7 µM] |
| O=C1C2C3C=CC(C3)C2C(=O)N1c1ccc(N2CCN(c3ccccn3)CC2)c([N+](=O)[O-])c1 (centres undefined) | inconclusive: 44.7 µM [inhibitor, partial curve] | – |
| O=C(O)/C=C/c1ccc(S(=O)(=O)NCc2ccco2)cc1 | inactive | – |
| COc1ccc(S(=O)(=O)Nc2cc3c4c(oc3c3ccccc23)CC(C)(C)CC4=O)cc1 | inconclusive: 79.4 µM [inhibitor, single point] | – |
| Cc1ccc(NC2=NCC(=O)N2Cc2cccs2)cc1C | inactive | – |
| CN(C)C1=NCCN1CCc1cccc(F)c1 | inactive | – |
| COC(=O)c1cccc(C(=O)N2CCCC(Nc3ccc4c(c3)OCCO4)C2)c1 (centres undefined) | inconclusive: 79.4 µM [inhibitor, single point] | – |
| O=C1CC(c2ccco2)Cc2nc(N3CCN(Cc4ccc5c(c4)OCO5)CC3)ncc21 (centres undefined) | inconclusive: 3.55 µM [inhibitor, partial curve, poor fit] | – |
| CC(Sc1cnc2ccccc2n1)C(=O)O (centres undefined) | inconclusive: 17.8 µM [inhibitor, single point] | – |
| C=CCc1cccc2cc(C(=O)NC3=C(C#N)CCC3)c(=O)oc12 | inactive | – |
| COC(=O)c1ccc(Sc2ccccn2)c([N+](=O)[O-])c1 | inconclusive: 3.98 µM [inhibitor, single point] | – |
| CCC(=O)Nc1cc(C)c(NC(=O)c2ccco2)cn1 | inactive | – |
| Cn1c(=NC(=O)COc2ccccc2)sc2ccccc21 | inconclusive: 25.1 µM [inhibitor, partial curve, poor fit] | – |
| O=C(N/N=C/c1cccnc1)c1cccs1 | inactive | – |
| Nn1cnnc1N/N=C/c1ccc(F)cc1 | active: 44.7 µM | – |
| O=C(c1ccccc1)c1ccc(C(=O)N2CCN(c3ccc(F)cc3)CC2)o1 | inconclusive: 79.4 µM [inhibitor, single point] | – |
| Cc1cccc(NC(=S)NC2CCCCC2)n1 | active: 0.891 µM | – |
| CCn1c(=O)c([N+](=O)[O-])c(NCCc2ccc(OC)c(OC)c2)c2ccccc21 | inactive | – |
| CCOC(=O)c1nn(-c2ccccc2)c(=O)c2c(NC(C)=O)scc12 | inactive | – |
